Test results taken from PubChem BioAssay AID602310 (National Center for Advancing Translational Sciences (NCATS), 2012).
About 310 (0.076%) of roughly 410,000 compounds were called active. This list was built around the results that the source calls inconclusive (neither active nor inactive); the mix of calls is not that of the screen. Calls come from the whole dose curve; as a rule, active = well fitted curve in the direction sought with a large enough effect; inconclusive = small, poorly fitted or top-dose-only effect; inactive = flat fitted curve, though single readings scatter. A potency beside an inconclusive call is a rough fit, not a confirmed value.

These compounds were tested against DNA dC->dU-editing enzyme APOBEC-3G (Homo sapiens) (UniProt Q9HC16) (assay: qHTS for Inhibitors of Vif-A3G Interactions: qHTS). Conditions: HeLa A3G-eYFP + Vif (tagged APOBEC3G with the HIV-1 protein that degrades it), YFP fluorescence, overnight; series mostly up to 46.1 µM; activity, negative = active: at the top concentration.
Procedure, shortened: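 Read-out is eYFP fluorescence (Ex 488/Em 500-530) from Vif-expressing HeLa A3G-eYFP cells; more signal means A3G escaped Vif-mediated degradation. Cells plated overnight, compound pinned in, incubated overnight at 37 deg C.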
% is set by controls: 0 for no effect and ±100 for the full control effect; potency is the fitted concentration of half-maximal effect; tags give direction and shape of the fitted curve.
Note: nearly all actives have a fitted effect of over 60% in size.
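Throughout, for activity, negative = active: hits raise eYFP signal because A3G escapes Vif-driven loss.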

UniProt Q9HC16, sequence (Q9HC16 whole entry, looked up): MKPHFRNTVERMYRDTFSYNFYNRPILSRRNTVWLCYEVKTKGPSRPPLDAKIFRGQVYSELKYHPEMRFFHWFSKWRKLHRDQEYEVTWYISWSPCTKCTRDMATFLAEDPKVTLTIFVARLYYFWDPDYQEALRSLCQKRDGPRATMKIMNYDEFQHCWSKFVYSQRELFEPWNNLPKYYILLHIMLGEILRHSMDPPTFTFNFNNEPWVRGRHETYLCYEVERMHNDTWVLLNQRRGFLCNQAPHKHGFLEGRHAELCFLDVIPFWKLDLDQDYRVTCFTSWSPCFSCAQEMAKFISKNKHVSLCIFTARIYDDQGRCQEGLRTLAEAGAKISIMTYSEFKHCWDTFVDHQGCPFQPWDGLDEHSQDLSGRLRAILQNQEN

Structure (SMILES)	Potency	activity, negative = active
CCOC(=O)C(C)Oc1cccc2c(=O)n(CC(=O)NCc3ccc(F)cc3)ccc12 (stereo not drawn)	inconclusive: 1 µM [inhibitor, full curve, poor fit]	–
CC1CCN(c2ccc3c(c2)S(=O)(=O)c2cccc(C(=O)NC4CCCCC4)c2C3=O)CC1	inconclusive: 11.2 µM [inhibitor, partial curve, poor fit]	–
CNC(=S)N1N=C(c2ccc(C)cc2)CC1c1cc(OC)ccc1OC (stereo not drawn)	inconclusive: 2.51 µM [inhibitor, full curve, poor fit]	–
Cc1cc(/C=C/c2c(C)cnc3ccccc23)ccc1N(C)C	–	inactive: -2.87%
O=C(Cc1n[nH]c(=O)c2ccccc12)OCC(=O)c1ccc2c(c1)OCCO2	inconclusive: 1 µM [inhibitor, full curve, poor fit]	–
O=C(Nc1ccc(Br)cn1)c1cccc2ccccc12	inconclusive: 1.41 µM [inhibitor, full curve, poor fit]	–
Cc1ccc(NC(=O)c2ccc(Cl)nc2)cc1S(=O)(=O)N1CCOCC1	inconclusive: 7.94 µM [inhibitor, partial curve, poor fit]	–
Cc1ccc(Cl)cc1NC(=O)CSC(N)=O	–	inactive: 0.0007%
COc1cc(NC(=O)c2ccc([N+](=O)[O-])o2)ccc1NC(=O)c1cccs1	inconclusive: 3.16 µM [inhibitor, single point]	–
CCCc1cc(C(=O)N/N=C/c2ccc(C)o2)c2ccccc2n1	inconclusive: 6.31 µM [inhibitor, full curve]	–
CC12CCC(C[N+](C)(C)C1)C2(C)C (stereo not drawn)	–	inactive: 3.43%
CCCNS(=O)(=O)c1ccc(OCC(=O)Nc2ccccc2F)cc1	–	inactive: 1.15%
CCCC(=O)Nc1nc2ccc(NC(=O)c3ccccc3F)cc2s1	inconclusive: 11.2 µM [inhibitor, partial curve, poor fit]	–
CCC(c1nnnn1C(C)(C)C)N1CCN(c2cc(Cl)ccc2C)CC1 (stereo not drawn)	–	inactive: -7.4%
Cc1ccc2c(c1)c1ccc3c(c1n2C)C(=O)C=CC3=O	–	inactive: -16.6%
CNc1ccc(N=Nc2cccc3ncccc23)cc1	–	inactive: -8.75%
CCOC(=O)c1c(C)nc2sc(C(=O)Nc3ccc(OC)cc3)c(N)c2c1-c1ccc(OC)cc1	inconclusive: 3.55 µM [inhibitor, full curve]	–
Cc1cc(-c2ccc(S(=O)(=O)N(C)c3ccc(C)c(C)c3)s2)on1	inconclusive: 1 µM [inhibitor, full curve, poor fit]	–
CCN1C(=O)CC(C(C)C)N(C2CCCC2)c2nc(Nc3ccc(C(=O)NC4CCN(C)CC4)cc3OC)ncc21 (stereo not drawn)	inconclusive: 22.4 µM [inhibitor, single point]	–
CC(=O)Nc1cccc(-c2ccnc3c2CC(C(=O)NCC2CC2)O3)c1 (stereo not drawn)	inconclusive: 22.4 µM [inhibitor, single point]	–
CC(=O)c1ccc(Oc2cc(C)nc(-n3nc(C)cc3C)n2)cc1	inconclusive: 1.12 µM [inhibitor, full curve, poor fit]	–
COc1cc(N2C(=O)CSC2=S)cc(OC)c1OC	inconclusive: 31.6 µM [inhibitor, single point]	–
COC(=O)C1=C(C)N(Cc2ccc(C)cc2)C(=O)/C1=C\c1ccc(O)c(OC)c1	inconclusive: 14.1 µM [inhibitor, single point]	–

Structure (SMILES)	Potency	activity, negative = active
COc1ccc(C2CC(=O)Oc3c(C(CCN4CCCC(C)C4)c4cc(OC)c(OC)c(OC)c4)c(OC)cc(OC)c32)cc1 (stereo not drawn)	–	inactive: 2.76%
COc1cc(/C=C(/C#N)c2nc3ccccc3[nH]2)ccc1OC(=O)c1ccco1	inconclusive: 10 µM [inhibitor, partial curve]	–
O=C(Cc1cccs1)N1CCN(S(=O)(=O)c2ccc(Br)cc2)CC1	–	inactive: 1.18%
CCC(C)n1c(SCC(=O)Nc2cc(C)on2)nc2ccccc2c1=O (stereo not drawn)	inconclusive: 22.4 µM [inhibitor, single point]	–
COc1ccc(NC(=O)Cn2c(=O)oc3cc(S(=O)(=O)NC4CCCC4)ccc32)cc1OC	–	inactive: 1.34%
COc1ccc(C(=O)ON=C2C=C(C)C(=O)C(C)=C2)cc1	inconclusive: 35.5 µM [inhibitor, single point]	–
COc1cc(C(=O)NC(=S)Nc2ccc3ccccc3c2)cc(OC)c1OC	inconclusive: 35.5 µM [inhibitor, single point]	–
CN(C)CCNC(=O)c1ccc(-n2c(-c3ccccc3)cc3c2CCCC3)cc1	inconclusive: 25.1 µM [inhibitor, single point]	–
COc1ccc(OC)c(Nc2cc(C)nc3nc(C)nn23)c1	inconclusive: 10 µM [inhibitor, partial curve]	–
Cc1cc(N2CCN(c3ccc([N+](=O)[O-])c4cccnc34)CC2)c2ccccc2n1	inconclusive: 7.08 µM [inhibitor, full curve, poor fit]	–
Brc1cc(Br)c2ncnc(N3CCCCC3)c2c1	–	inactive: 11.6%
CCN(CC(=O)Nc1ccc2c(c1)OCCO2)S(=O)(=O)c1cccs1	–	inactive: 0.488%
FC(F)(F)c1cccc(NC(=S)Nc2ccc(Cl)c(Cl)c2)c1	–	inactive: 4.21%
Cc1cccc(N=C2NN=C(c3ccccc3F)CS2)c1C	–	inactive: 6.78%
Cc1cc(Nc2cc(Cl)nc(Sc3ccc(NC(=O)C4CC4)cc3)n2)n[nH]1	–	inactive: -18.8%
CCOC1=C2CN(S(=O)(=O)c3ccc(C)cc3)CC[C@@H]2N(S(=O)(=O)c2ccc(C)cc2)[C@H](c2ccccc2)C1	–	inactive: 0.191%
Cc1cccc(NS(=O)(=O)c2ccc3[nH]c(=O)ccc3c2)c1C	inconclusive: 25.1 µM [inhibitor, single point]	–
CCOC(=O)/C=c1/s/c(=C\c2c(OC)ccc3ccccc23)c(=O)n1CC(=O)NCC1CCCO1 (stereo not drawn)	active: 11.2 µM	–
COc1ccc(C2CC(=O)c3cnn(-c4nc(C)cc(C)n4)c3C2)cc1 (stereo not drawn)	inconclusive: 8.91 µM [inhibitor, partial curve]	–
O=C(/C=C/c1cccs1)Nc1ccc(Br)cn1	inconclusive: 1 µM [inhibitor, full curve, poor fit]	–
Cc1[nH]c2ccc(C(=O)OC(C)C(=O)NCc3ccccc3)cc2c1C (stereo not drawn)	inconclusive: 5.62 µM [inhibitor, full curve]	–
Cc1cc2oc(C(=O)NCCc3ccc(S(N)(=O)=O)cc3)cc(=O)c2cc1C	inactive	–
CC(=O)Nc1ccc(Nc2nc(-c3sc(NC(C)=O)nc3C)cs2)cc1	–	inactive: -25.1%

Structure (SMILES)	Potency	activity, negative = active
COc1ccc(-c2cnc3c(NC=O)cc(-c4cccc(NS(C)(=O)=O)c4)cn23)cc1OC	inconclusive: 2.82 µM [inhibitor, full curve]	–
C=C(NC(=O)C(=C)NC(=O)c1csc(C2=NC3c4csc(n4)C4NC(=O)c5csc(n5)C(C(C)(O)C(C)O)NC(=O)C5CSC(=N5)/C(=C/C)NC(=O)C(C(C)O)NC(=O)c5csc(n5)C3(CC2)NC(=O)C(C)NC(=O)C(=C)NC(=O)C(=C)NC(=O)C(C(C)C)NC2C=Cc3c(C(C)O)cc(nc3C2O)C(=O)OC4C)n1)C(N)=O (stereo not drawn)	inconclusive: 3.16 µM [inhibitor, full curve, poor fit]	–
O=C(c1ccccc1)C1OC1C(=O)c1ccccc1 (stereo not drawn)	inconclusive: 3.16 µM [inhibitor, single point]	–
Cc1ccc(C2=NOC(=O)/C2=C\C=C\c2ccccc2)cc1	inconclusive: 17.8 µM [inhibitor, single point]	–
COc1cc(CNCCNC(=O)c2nonc2N)ccc1OCc1ccc(Cl)cc1	inconclusive: 35.5 µM [inhibitor, single point]	–
O=C(CCC(=O)c1ccc(F)cc1)OCc1nnc(-c2ccc([N+](=O)[O-])cc2)o1	–	inactive: -0.457%
O=C(c1ccc(Cl)cc1)C(CN1CCCC1)c1ccccc1 (stereo not drawn)	inconclusive: 22.4 µM [inhibitor, single point]	–
O=C(/C=C/Nc1ccc(F)c(Cl)c1)c1ccco1	inconclusive: 25.1 µM [inhibitor, single point]	–
Cc1nc2c3cc(F)ccc3n(Cc3ccccc3F)c2s1	inconclusive: 6.31 µM [inhibitor, partial curve, poor fit]	–
CCOC(=O)c1c(CSc2ccc(CC)cc2)oc2ccc(O)c(CN(C)C)c12	–	inactive: 0.393%
Cc1ccccc1NC(=O)c1sc2nc3c(c(-c4ccco4)c2c1N)CCC3	active: 12.6 µM	–
Cc1ccc(S(=O)(=O)c2c(N)n(CCCN(C)C)c3nc4ccccc4nc23)cc1	–	inactive: 4.26%
COc1cccc(Nc2nc(N)nc(-c3oc4ccccc4c3C)n2)c1	inconclusive: 3.16 µM [inhibitor, partial curve, poor fit]	–
N#Cc1c(N)n[nH]c1-c1cc2c([nH]1)CCCC2	–	inactive: -0.217%
Cn1cc(C(=O)CCl)c2ccccc21	inconclusive: 17.8 µM [inhibitor, single point]	–
CCN1C(=O)[C@H]2[C@H]3CN=C(SCC(=O)c4ccccc4)N3[C@@](C)(C(=O)OC)[C@H]2C1=O	–	inactive: 8.66%
CCc1ccc2c(c1)[C@H]1OCC[C@H]1[C@@H](c1cccs1)N2	inconclusive: 2.51 µM [inhibitor, full curve, poor fit]	–
C=CCOc1ccccc1CN(C(=O)CCl)c1ccc2c(c1)OCO2	–	inactive: 1.36%
CN1CCN(c2ccc(NC(=S)NC(=O)c3cccc4ccccc34)cc2)CC1	inconclusive: 17.8 µM [inhibitor, single point]	–
CCCCC(=O)NC(=S)NNC(=O)CC#N	–	inactive: 1.05%
Cc1nc2c3cc(F)ccc3n(Cc3ccc(F)cc3)c2s1	inconclusive: 3.16 µM [inhibitor, partial curve, poor fit]	–
COC1=C/C(=C/c2c(N)n3c(nc2=O)sc2cc(S(C)(=O)=O)ccc23)C=CC1=O	inconclusive: 25.1 µM [inhibitor, single point]	–
